{"source": "PubChem BioAssay AID686971", "about": "(National Center for Advancing Translational Sciences (NCATS), 2013)", "note": "Screen size: about 360,000 compounds; about 7,500 (2.1%) were called active. The shares of active, inactive and inconclusive entries below differ from those in the screen. Calls follow the shape of the dose curve; as a rule, active = well fitted cell-killing curve with a large enough effect; inconclusive = small, poorly fitted or top-dose-only effect, or effect the other way, or another doubt; inactive = no such curve, though single readings can be large or run the other way. No potency is given beside an inconclusive call; the fits are too rough. Potency is read from the fitted curve at half-maximal effect; tags tell the direction and shape of the fitted curve."}
{"experiment": "qHTS for induction of synthetic lethality in tumor cells producing 2HG: qHTS for the HT-1080-IDH1KD cell line;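 as to activity, negative = toxicity: 0% = DMSO wells and -100% = cell-free medium wells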", "conditions": "HT-1080 IDH1 knockdown viability, ATP luminescence, 48 h; activity, negative = toxicity: at 46.1 µM (top of the series) unless noted", "summary_of_the_method": "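Viability of IDH1-knockdown HT-1080 fibrosarcoma cells was assessed by CellTiter-Glo after 48 h at 37 °C with titrated compound; concentration-effect curves were classified by fit quality and response size.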"}
{"smiles": "N#C/C(=C/c1ccc(N2CCOCC2)o1)c1nc2ccccc2[nH]1", "Potency": "inconclusive [cytotoxic, single point]"}
{"smiles": "COc1ccc(S(=O)(=O)NCc2ccco2)cc1NC(=O)c1ccccc1", "Potency": "inconclusive [cytotoxic, single point]"}
{"smiles": "O=C1Nc2ccccc2S/C1=C/Nc1cccc(Cl)c1", "Potency": "inconclusive [cytotoxic, single point]"}
{"smiles": "CC1(Cc2ccc(C(F)(F)F)o2)C(=O)Nc2cc(-c3ccc(F)cc3F)ccc21", "note": "(stereo not given)", "Potency": "inconclusive [cytotoxic, single point]"}
{"smiles": "CCCCCC1CC(CC(=O)Nc2ccc([N+](=O)[O-])cc2)C(=O)O1", "note": "(stereo not given)", "activity, negative = toxicity": "inactive: -2.04%"}
{"smiles": "Cc1ccc(CCNc2ncnc(Cl)c2N)cc1", "activity, negative = toxicity": "inconclusive: -22.7% [cytotoxic]"}
{"smiles": "Clc1ncnc2scc(C3COc4ccccc4O3)c12", "note": "(stereo not given)", "activity, negative = toxicity": "inactive: -16.7%"}
{"smiles": "CCOC(=O)Cc1csc(NC(=O)c2sc3nc4cc(C)ccc4cc3c2N)n1", "Potency": "inconclusive [cytotoxic, single point]"}
{"smiles": "Cc1ccc(N(C)S(=O)(=O)c2ccc(-c3cc(C)no3)s2)cc1", "Potency": "inconclusive [cytotoxic, single point]"}
{"smiles": "CCCn1c(=O)c2c(nc3n2CCCN3CCc2ccccc2)n(C)c1=O", "activity, negative = toxicity": "inactive: -0.998%"}
{"smiles": "Cc1cc(Cl)ccc1C(O)c1ncc(-c2ccccc2Cl)[nH]1", "note": "(stereo not given)", "Potency": "inconclusive [cytotoxic, single point]"}
{"smiles": "CNC(=S)Nc1cccc(S(=O)(=O)NCc2ccco2)c1", "activity, negative = toxicity": "inactive: -0.253%"}
{"smiles": "COc1ccc(NC(=O)CSc2nc(C3CC3)nc3ccccc23)cc1", "Potency": "inconclusive [cytotoxic, partial curve]"}
{"smiles": "Cc1ccc(OCC(=O)Nc2cc(S(=O)(=O)N3CCOCC3)ccc2Cl)c([N+](=O)[O-])n1", "activity, negative = toxicity": "inactive: 2.07%"}
{"smiles": "CCCc1c(-c2ccccc2F)ncn1CCc1ccccc1OC", "Potency": "inconclusive [cytotoxic, single point]"}
{"smiles": "C=CCn1cnc2c(c1=O)c1nc3ccccc3nc1n2/N=C/c1cccc(OC)c1OC", "Potency": "inconclusive [rising, partial curve, poor fit]"}
{"smiles": "S=C(N/N=C/c1ccccc1Cl)Nc1ccccc1", "Potency": "active: 3.98 µM"}
{"smiles": "O=C(NCc1ccco1)c1cccc(NC(=O)c2ccccc2)c1", "Potency": "inconclusive [cytotoxic, full curve]"}
{"smiles": "Cc1ccc(N=C2C(=O)Nc3ccc(Br)cc32)cc1", "Potency": "inconclusive [cytotoxic, partial curve]"}
{"smiles": "Cc1ccc2cc(CN(Cc3ccc(F)cc3)Cc3nnnn3C3CCCC3)c(=O)[nH]c2c1", "Potency": "inconclusive [cytotoxic, single point]"}
